# The other results are listed elsewhere or left out.
# What was measured:
# Assay in all cases: glycan array binding signal (z-score within array); higher = stronger binding
# Settings in all cases: glycan notation: IUPAC condensed, linker removed
# [1] = target: Neu5Ac(a2-3)Gal(b1-4)[Fuc(a1-3)]GlcNAc
# Outline: (§1)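 Glycan array binding is given as a within-array Z-score, which can be read as non-binding when negative. The arrays, 3228 of them, came from the Consortium for Functional Glycomics database and were retained only where the protein sequence was available. Z-scores were averaged across arrays of the same protein sequence at different concentrations or buffers and across linkers.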
# [2] = target: Neu5Ac(a2-3)Gal(b1-4)[Fuc(a1-3)]GlcNAc(b1-3)Gal
# Outline: as §1
# [3] = target: Neu5Ac(a2-3)Gal(b1-4)[Fuc(a1-3)]GlcNAc(b1-3)Gal(b1-4)GlcNAc
# Outline: as §1
# [4] = target: Neu5Ac(a2-3)Gal(b1-4)[Fuc(a1-3)]GlcNAc(b1-3)Gal(b1-4)[Fuc(a1-3)]GlcNAc(b1-3)Gal(b1-4)[Fuc(a1-3)]GlcNAc
# Outline: as §1
# [5] = target: Neu5Ac(a2-3)Gal(b1-4)[Fuc(a1-3)]GlcNAc(b1-3)GalNAc
# Outline: as §1
# [6] = target: Neu5Ac(a2-3)Gal(b1-4)[Fuc(a1-3)]GlcNAc(b1-6)[Gal(b1-3)]GalNAc
# Outline: as §1
# [7] = target: Neu5Ac(a2-3)Gal(b1-4)[Fuc(a1-3)]GlcNAc(b1-6)[Neu5Ac(a2-3)Gal(b1-3)]GalNAc
# Outline: as §1
# [8] = target: Neu5Ac(a2-3)Gal(b1-4)[Fuc(a1-3)]GlcNAc6S
# Outline: as §1
# [9] = target: Neu5Ac(a2-3)Gal6S(b1-4)GlcNAc
# Outline: as §1
# [10] = target: Neu5Ac(a2-3)Gal6S(b1-4)[Fuc(a1-3)]GlcNAc
# Outline: as §1
# Neu5Ac(a2-3)GalNAc = target: Neu5Ac(a2-3)GalNAc
# Outline: as §1
# [11] = target: Neu5Ac(a2-3)GalNAc(b1-4)GlcNAc
# Outline: as §1
# [12] = target: Neu5Ac(a2-3)[GalNAc(b1-4)]Gal(b1-4)Glc
# Outline: as §1
# [13] = target: Neu5Ac(a2-3)[GalNAc(b1-4)]Gal(b1-4)GlcNAc
# Outline: as §1
# [14] = target: Neu5Ac(a2-3)[GalNAc(b1-4)]Gal(b1-4)GlcNAc(b1-3)GalNAc
# Outline: as §1
# [15] = target: Neu5Ac(a2-3)[Neu5Ac(a2-6)]GalNAc
# Outline: as §1
# Neu5Ac(a2-6)Gal = target: Neu5Ac(a2-6)Gal
# Outline: as §1
# [16] = target: Neu5Ac(a2-6)Gal(b1-3)GlcNAc(b1-3)[Gal(b1-4)GlcNAc(b1-6)]Gal(b1-4)Glc
# Outline: as §1
# Neu5Ac(a2-6)Gal(b1-4)Glc = target: Neu5Ac(a2-6)Gal(b1-4)Glc
# Outline: as §1
# [17] = target: Neu5Ac(a2-6)Gal(b1-4)GlcNAc
# Outline: as §1
# [18] = target: Neu5Ac(a2-6)Gal(b1-4)GlcNAc(b1-2)Man(a1-3)Man(b1-4)GlcNAc(b1-4)GlcNAc
# Outline: as §1
# [19] = target: Neu5Ac(a2-6)Gal(b1-4)GlcNAc(b1-2)Man(a1-3)[Gal(b1-4)GlcNAc(b1-2)Man(a1-6)]Man(b1-4)GlcNAc(b1-4)GlcNAc
# Outline: as §1
# [20] = target: Neu5Ac(a2-6)Gal(b1-4)GlcNAc(b1-2)Man(a1-3)[GlcNAc(b1-2)Man(a1-6)]Man(b1-4)GlcNAc(b1-4)GlcNAc
# Outline: as §1
# [21] = target: Neu5Ac(a2-6)Gal(b1-4)GlcNAc(b1-2)Man(a1-3)[GlcNAc(b1-2)Man(b1-4)GlcNAc(b1-2)Man(a1-6)]Man(b1-4)GlcNAc(b1-4)GlcNAc
# Outline: as §1
# [22] = target: Neu5Ac(a2-6)Gal(b1-4)GlcNAc(b1-2)Man(a1-3)[Man(a1-6)]Man(b1-4)GlcNAc(b1-4)GlcNAc
# Outline: as §1
# [23] = target: Neu5Ac(a2-6)Gal(b1-4)GlcNAc(b1-2)Man(a1-3)[Neu5Ac(a2-6)Gal(b1-4)GlcNAc(b1-2)Man(a1-6)]Man(b1-4)GlcNAc(b1-4)GlcNAc
# Outline: as §1
# [24] = target: Neu5Ac(a2-6)Gal(b1-4)GlcNAc(b1-2)Man(a1-6)Man(b1-4)GlcNAc(b1-4)GlcNAc
# Outline: as §1
# [25] = target: Neu5Ac(a2-6)Gal(b1-4)GlcNAc(b1-2)Man(a1-6)[Gal(b1-4)GlcNAc(b1-2)Man(a1-3)]Man(b1-4)GlcNAc(b1-4)GlcNAc
# Outline: as §1
# [26] = target: Neu5Ac(a2-6)Gal(b1-4)GlcNAc(b1-2)Man(a1-6)[GlcNAc(b1-2)Man(a1-3)]Man(b1-4)GlcNAc(b1-4)GlcNAc
# Outline: as §1
# [27] = target: Neu5Ac(a2-6)Gal(b1-4)GlcNAc(b1-2)Man(a1-6)[Man(a1-3)]Man(b1-4)GlcNAc(b1-4)GlcNAc
# Outline: as §1
# [28] = target: Neu5Ac(a2-6)Gal(b1-4)GlcNAc(b1-3)Gal(b1-3)GlcNAc
# Outline: as §1
# [29] = target: Neu5Ac(a2-6)Gal(b1-4)GlcNAc(b1-3)Gal(b1-4)GlcNAc
# Outline: as §1
# [30] = target: Neu5Ac(a2-6)Gal(b1-4)GlcNAc(b1-3)Gal(b1-4)GlcNAc(b1-3)Gal(b1-4)GlcNAc
# Outline: as §1
# [31] = target: Neu5Ac(a2-6)Gal(b1-4)GlcNAc(b1-3)Gal(b1-4)[Fuc(a1-3)]GlcNAc(b1-3)Gal(b1-4)[Fuc(a1-3)]GlcNAc
# Outline: as §1
# [32] = target: Neu5Ac(a2-6)Gal(b1-4)GlcNAc(b1-3)GalNAc
# Outline: as §1
# [33] = target: Neu5Ac(a2-6)Gal(b1-4)GlcNAc6S
# Outline: as §1
# Neu5Ac(a2-6)GalNAc = target: Neu5Ac(a2-6)GalNAc
# Outline: as §1
# [34] = target: Neu5Ac(a2-6)GalNAc(b1-4)GlcNAc
# Outline: as §1
# [35] = target: Neu5Ac(a2-6)GlcNAc(b1-4)GlcNAc
# Outline: as §1
# [36] = target: Neu5Ac(a2-6)GlcNAc(b1-4)GlcNAc(b1-4)GlcNAc
# Outline: as §1
# Neu5Ac(a2-8)Neu5Ac = target: Neu5Ac(a2-8)Neu5Ac
# Outline: as §1
# [37] = target: Neu5Ac(a2-8)Neu5Ac(a2-3)Gal(b1-4)Glc
# Outline: as §1
# [38] = target: Neu5Ac(a2-8)Neu5Ac(a2-3)[Gal(b1-3)GalNAc(b1-4)]Gal(b1-4)Glc
# Outline: as §1
# [39] = target: Neu5Ac(a2-8)Neu5Ac(a2-3)[GalNAc(b1-4)]Gal(b1-4)Glc
# Outline: as §1
# [40] = target: Neu5Ac(a2-8)Neu5Ac(a2-8)Neu5Ac
# Outline: as §1
# [41] = target: Neu5Ac(a2-8)Neu5Ac(a2-8)Neu5Ac(a2-3)Gal(b1-4)Glc
# Outline: as §1
# [42] = target: Neu5Ac(a2-8)Neu5Ac(a2-8)Neu5Ac(a2-3)[GalNAc(b1-4)]Gal(b1-4)Glc
# Outline: as §1
# [43] = target: Neu5Ac(a2-8)Neu5Ac(a2-8)Neu5Ac(a2-8)Neu5Ac(a2-3)[GalNAc(b1-4)]Gal(b1-4)Glc
# Outline: as §1
# [44] = target: Neu5Ac(b2-6)Gal(b1-4)GlcNAc
# Outline: as §1
# Neu5Ac(b2-6)GalNAc = target: Neu5Ac(b2-6)GalNAc
# Outline: as §1
# [45] = target: Neu5Ac9Ac(a2-3)Gal(b1-3)GlcNAc
# Outline: as §1
# [46] = target: Neu5Ac9Ac(a2-3)Gal(b1-4)GlcNAc
# Outline: as §1
# [47] = target: Neu5Ac9Ac(a2-6)Gal(b1-4)GlcNAc
# Outline: as §1
# [48] = target: Neu5Gc(a2-3)Gal(b1-3)GlcNAc
# Outline: as §1
# [49] = target: Neu5Gc(a2-3)Gal(b1-3)[Fuc(a1-4)]GlcNAc
# Outline: as §1
# Neu5Gc(a2-3)Gal(b1-4)Glc = target: Neu5Gc(a2-3)Gal(b1-4)Glc
# Outline: as §1
# [50] = target: Neu5Gc(a2-3)Gal(b1-4)GlcNAc
# Outline: as §1
# [51] = target: Neu5Gc(a2-3)Gal(b1-4)[Fuc(a1-3)]GlcNAc
# Outline: as §1
# [52] = target: Neu5Gc(a2-6)Gal(b1-4)GlcNAc
# Outline: as §1
# Neu5Gc(a2-6)GalNAc = target: Neu5Gc(a2-6)GalNAc
# Outline: as §1
# [53] = target: Neu5Gc(b2-6)Gal(b1-4)GlcNAc
# Outline: as §1
binder,measurement,setting,value
"PILRa (Homo sapiens), Q9UKJ1 (protein) MGRPLLLPLLPLLLPPAFLQPSGSTGSGPSYLYGVTQPKHLSASMGGSVEIPFSFYYPWELATAPDVRISWRRGHFHRQSFYSTRPPSIHKDYVNRLFLNWTEGQKSGFLRISNLQKQDQSVYFCRVELDTRSSGRQQWQSIEGTKLSITQAVTTTTQRPSSMTTTWRLSSTTTTTGLRVTQGKRRSDSWHISLETAVGVAVAVTVLGIMILGLICLLRWRRRKGQQRTKATTPAREPFQNTEEPYENIRNEGQNTDPKLNPKDDGIVYASLALSSSTSPRAPPSHRPLKSPQNETLYSVLKA",glycan array binding signal (z-score),[1],0.098
same,glycan array binding signal (z-score),[2],-0.322
same,glycan array binding signal (z-score),[3],-0.388
same,glycan array binding signal (z-score),[4],-0.295
same,glycan array binding signal (z-score),[5],0.415
same,glycan array binding signal (z-score),[6],0.986
same,glycan array binding signal (z-score),[7],0.077
same,glycan array binding signal (z-score),[8],-0.092
same,glycan array binding signal (z-score),[9],-0.323
same,glycan array binding signal (z-score),[10],-0.282
same,glycan array binding signal (z-score),Neu5Ac(a2-3)GalNAc,-0.108
same,glycan array binding signal (z-score),[11],-0.314
same,glycan array binding signal (z-score),[12],-0.3
same,glycan array binding signal (z-score),[13],-0.374
same,glycan array binding signal (z-score),[14],-0.248
same,glycan array binding signal (z-score),[15],0.024
same,glycan array binding signal (z-score),Neu5Ac(a2-6)Gal,1.87
same,glycan array binding signal (z-score),[16],-0.158
same,glycan array binding signal (z-score),Neu5Ac(a2-6)Gal(b1-4)Glc,-0.173
same,glycan array binding signal (z-score),[17],-0.041
same,glycan array binding signal (z-score),[18],-0.527
same,glycan array binding signal (z-score),[19],-0.289
same,glycan array binding signal (z-score),[20],-0.235
same,glycan array binding signal (z-score),[21],-0.32
same,glycan array binding signal (z-score),[22],-0.177
same,glycan array binding signal (z-score),[23],-0.134
same,glycan array binding signal (z-score),[24],-0.323
same,glycan array binding signal (z-score),[25],1.32
same,glycan array binding signal (z-score),[26],-0.3
same,glycan array binding signal (z-score),[27],-0.163
same,glycan array binding signal (z-score),[28],-0.266
same,glycan array binding signal (z-score),[29],-0.365
same,glycan array binding signal (z-score),[30],-0.235
same,glycan array binding signal (z-score),[31],-0.204
same,glycan array binding signal (z-score),[32],0.136
same,glycan array binding signal (z-score),[33],1.63
same,glycan array binding signal (z-score),Neu5Ac(a2-6)GalNAc,-0.093
same,glycan array binding signal (z-score),[34],0.093
same,glycan array binding signal (z-score),[35],0.054
same,glycan array binding signal (z-score),[36],-0.165
same,glycan array binding signal (z-score),Neu5Ac(a2-8)Neu5Ac,0.348
same,glycan array binding signal (z-score),[37],-0.133
same,glycan array binding signal (z-score),[38],-0.253
same,glycan array binding signal (z-score),[39],-0.257
same,glycan array binding signal (z-score),[40],-0.3
same,glycan array binding signal (z-score),[41],-0.308
same,glycan array binding signal (z-score),[42],-0.242
same,glycan array binding signal (z-score),[43],-0.297
same,glycan array binding signal (z-score),[44],-0.16
same,glycan array binding signal (z-score),Neu5Ac(b2-6)GalNAc,0.231
same,glycan array binding signal (z-score),[45],-0.29
same,glycan array binding signal (z-score),[46],-0.356
same,glycan array binding signal (z-score),[47],-0.086
same,glycan array binding signal (z-score),[48],-0.369
same,glycan array binding signal (z-score),[49],-0.37
same,glycan array binding signal (z-score),Neu5Gc(a2-3)Gal(b1-4)Glc,-0.222
same,glycan array binding signal (z-score),[50],-0.246
same,glycan array binding signal (z-score),[51],-0.343
same,glycan array binding signal (z-score),[52],-0.289
same,glycan array binding signal (z-score),Neu5Gc(a2-6)GalNAc,0.02
same,glycan array binding signal (z-score),[53],-0.275

# From the supplement of paper PMC8728848
